{
  "source": "the supplement of paper PMC3334620",
  "note": "In all, about 33,000 sequences were measured (“E-score (-0.5 to 0.5)”: median about -0.035, highest 2% from about 0.34 on). Some of the results follow.",
  "data": [
    {"target": "T1, Mot3 (UniProt P54785)", "T1 sequence": "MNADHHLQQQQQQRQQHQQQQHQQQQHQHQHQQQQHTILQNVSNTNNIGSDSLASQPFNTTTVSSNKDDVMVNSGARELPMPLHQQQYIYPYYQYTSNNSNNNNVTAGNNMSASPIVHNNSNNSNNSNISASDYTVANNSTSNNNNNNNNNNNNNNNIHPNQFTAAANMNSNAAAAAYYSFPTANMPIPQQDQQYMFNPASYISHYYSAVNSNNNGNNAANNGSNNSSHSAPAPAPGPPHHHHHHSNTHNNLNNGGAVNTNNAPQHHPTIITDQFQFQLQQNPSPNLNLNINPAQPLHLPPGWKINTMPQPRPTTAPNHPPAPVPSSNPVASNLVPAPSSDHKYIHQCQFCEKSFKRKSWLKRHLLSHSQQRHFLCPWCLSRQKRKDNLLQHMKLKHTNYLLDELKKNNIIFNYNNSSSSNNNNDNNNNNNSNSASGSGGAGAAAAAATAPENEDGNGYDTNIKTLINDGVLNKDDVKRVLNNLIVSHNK", "test": "PBM E-score (8-mer binding enrichment) (E-score (-0.5 to 0.5)); higher = stronger / more preferred TF binding; most listed sequences are background and not binding sites", "conditions": "protein concentration: 200 nM; construct: GST-full length", "outline": "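Full-length yeast transcription factors or their DNA-binding domains, GST-tagged and expressed with PURExpress, were applied at about 100-200 nM to universal all-10-mer Agilent arrays. These arrays had been made double-stranded by primer extension on fresh or once-stripped slides. Detection used fluorescent anti-GST, normalisation used masliner, and E-scores for ungapped eight-base words pooled with reverse complements came from the Universal PBM Analysis Suite.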", "values": [
      {"sequence": "AGCTGCCA", "PBM E-score": -0.175},
      {"sequence": "CAAACTAC", "PBM E-score": 0.05},
      {"sequence": "ATTTTCAA", "PBM E-score": 0.12},
      {"sequence": "ACATAGAA", "PBM E-score": 0.246},
      {"sequence": "CCAGATCG", "PBM E-score": -0.125},
      {"sequence": "CCCACTTA", "PBM E-score": 0.00679},
      {"sequence": "CGCAACAG", "PBM E-score": 0.0587},
      {"sequence": "TAAAGGTA", "PBM E-score": 0.382},
      {"sequence": "CACTAAAG", "PBM E-score": 0.0255},
      {"sequence": "CTTTGATC", "PBM E-score": -0.148},
      {"sequence": "ATTACAAC", "PBM E-score": 0.286},
      {"sequence": "ATACCTCA", "PBM E-score": -0.146},
      {"sequence": "CAGCGGAC", "PBM E-score": -0.264},
      {"sequence": "AAGACAAA", "PBM E-score": 0.0527},
      {"sequence": "CAGCCCTG", "PBM E-score": -0.191},
      {"sequence": "ACTTCCTC", "PBM E-score": -0.0876},
      {"sequence": "CTGGATTC", "PBM E-score": -0.137},
      {"sequence": "AATCGACA", "PBM E-score": 0.201},
      {"sequence": "ATTGCGAG", "PBM E-score": -0.222},
      {"sequence": "TCTGGGAA", "PBM E-score": -0.243},
      {"sequence": "AGCTACCT", "PBM E-score": 0.0903},
      {"sequence": "TATTTTCA", "PBM E-score": 0.117},
      {"sequence": "ACTCGTCG", "PBM E-score": -0.0932},
      {"sequence": "CTGCTCCA", "PBM E-score": -0.0945},
      {"sequence": "AGCTTTTG", "PBM E-score": 0.101},
      {"sequence": "TCGTCGAA", "PBM E-score": 0.125},
      {"sequence": "GTTCTAGA", "PBM E-score": -0.0908},
      {"sequence": "GCCACCAA", "PBM E-score": -0.158},
      {"sequence": "CACACCAA", "PBM E-score": 0.104},
      {"sequence": "ATGTCATA", "PBM E-score": 0.172},
      {"sequence": "ACTCAGGG", "PBM E-score": -0.143},
      {"sequence": "CGAGCGCG", "PBM E-score": -0.144},
      {"sequence": "GGACACAC", "PBM E-score": -0.079},
      {"sequence": "CACTAGGG", "PBM E-score": -0.0853},
      {"sequence": "AGTACAAC", "PBM E-score": -0.0278},
      {"sequence": "CAATGCGG", "PBM E-score": 0.0422},
      {"sequence": "AAGTATAG", "PBM E-score": -0.0363},
      {"sequence": "CCTAGTTC", "PBM E-score": 0.0417},
      {"sequence": "AGCCGCGC", "PBM E-score": -0.137},
      {"sequence": "AGAGCGTG", "PBM E-score": 0.0559},
      {"sequence": "CCATGACC", "PBM E-score": -0.28},
      {"sequence": "AATGAAGA", "PBM E-score": -0.05},
      {"sequence": "CCTTCCAG", "PBM E-score": 0.0889},
      {"sequence": "GGCCCGCA", "PBM E-score": -0.212},
      {"sequence": "AGATGCCA", "PBM E-score": -0.236},
      {"sequence": "ATGCGAAA", "PBM E-score": 0.0635},
      {"sequence": "CTTATCTA", "PBM E-score": 0.0435},
      {"sequence": "AGGTGGCC", "PBM E-score": -0.221},
      {"sequence": "CACAAGGG", "PBM E-score": 0.0627},
      {"sequence": "ACACAGGT", "PBM E-score": 0.222},
      {"sequence": "AGTGGGAC", "PBM E-score": -0.0842},
      {"sequence": "ATAAGTAG", "PBM E-score": -0.00736},
      {"sequence": "GAGTCTTA", "PBM E-score": -0.248},
      {"sequence": "GGTCTCCA", "PBM E-score": -0.104},
      {"sequence": "CCTTGACG", "PBM E-score": -0.13},
      {"sequence": "AATTACGA", "PBM E-score": 0.298},
      {"sequence": "AGCGTAAT", "PBM E-score": 0.18},
      {"sequence": "TAAACCAA", "PBM E-score": 0.13},
      {"sequence": "ATTTACTC", "PBM E-score": 0.159},
      {"sequence": "TCCAGTCA", "PBM E-score": -0.208},
      {"sequence": "GATTTAGC", "PBM E-score": -0.158},
      {"sequence": "AGGATGTG", "PBM E-score": -0.0943},
      {"sequence": "ACGGGCCG", "PBM E-score": -0.115},
      {"sequence": "CGGCTGCC", "PBM E-score": 0.00053},
      {"sequence": "AGAACATG", "PBM E-score": 0.259},
      {"sequence": "GACGTCCC", "PBM E-score": -0.149},
      {"sequence": "CCAACGGG", "PBM E-score": -0.172},
      {"sequence": "CGGTATCA", "PBM E-score": 0.029},
      {"sequence": "CATGTATC", "PBM E-score": 0.277},
      {"sequence": "GCCCTTCA", "PBM E-score": -0.14},
      {"sequence": "TGCTTAAA", "PBM E-score": 0.0785},
      {"sequence": "AGGTCGGA", "PBM E-score": -0.182},
      {"sequence": "AGTCTTCA", "PBM E-score": -0.171},
      {"sequence": "AGTAGGGG", "PBM E-score": -0.0677},
      {"sequence": "AAAGTTGT", "PBM E-score": 0.114},
      {"sequence": "AACGAGGC", "PBM E-score": -0.0362},
      {"sequence": "ATCCACAG", "PBM E-score": -0.0584},
      {"sequence": "ATTATGAG", "PBM E-score": -0.081},
      {"sequence": "CGAACGGC", "PBM E-score": -0.283},
      {"sequence": "ATTAGACG", "PBM E-score": -0.0422},
      {"sequence": "ATTGAATA", "PBM E-score": 0.199},
      {"sequence": "GAGCAACC", "PBM E-score": -0.0771},
      {"sequence": "GGCTGTGA", "PBM E-score": 0.0105},
      {"sequence": "GGAGACCC", "PBM E-score": -0.0421},
      {"sequence": "CTTCGGCC", "PBM E-score": -0.183},
      {"sequence": "ATAGACAT", "PBM E-score": 0.0987}
    ]}
  ]
}
